{"source": "the supplement of paper PMC8728848", "experiment_in_all_cases": "glycan array binding signal (z-score within array); higher = stronger binding", "conditions_in_all_cases": "glycan notation: IUPAC condensed, linker removed", "key": {"[1]": {"target": "Neu5Ac(a2-6)Gal(b1-4)GlcNAc(b1-2)Man(a1-3)[Neu5Ac(a2-3)Gal(b1-4)GlcNAc(b1-2)Man(a1-6)]Man(b1-4)GlcNAc(b1-4)GlcNAc", "in_short": "(§1)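 Columns mapping to the same glycan were averaged after glycan names were converted to IUPAC-condensed notation. The data come from 3228 arrays in the Consortium for Functional Glycomics database, limited to those with an available protein sequence. Binding is reported as a within-array Z-score averaged across arrays of one protein sequence and across linkers.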"}, "[2]": {"target": "Neu5Ac(a2-6)Gal(b1-4)GlcNAc(b1-2)Man(a1-3)[Neu5Ac(a2-6)Gal(b1-4)GlcNAc(b1-2)Man(a1-6)]Man(b1-4)GlcNAc(b1-4)GlcNAc", "in_short": "as §1"}, "[3]": {"target": "Neu5Ac(a2-6)Gal(b1-4)GlcNAc(b1-2)Man(a1-3)[Neu5Ac(a2-6)Gal(b1-4)GlcNAc(b1-2)Man(a1-6)]Man(b1-4)GlcNAc(b1-4)[Fuc(a1-6)]GlcNAc", "in_short": "as §1"}, "[4]": {"target": "Neu5Ac(a2-6)Gal(b1-4)GlcNAc(b1-2)Man(a1-6)Man(b1-4)GlcNAc(b1-4)GlcNAc", "in_short": "as §1"}, "[5]": {"target": "Neu5Ac(a2-6)Gal(b1-4)GlcNAc(b1-2)Man(a1-6)[Gal(b1-4)GlcNAc(b1-2)Man(a1-3)]Man(b1-4)GlcNAc(b1-4)GlcNAc", "in_short": "as §1"}, "[6]": {"target": "Neu5Ac(a2-6)Gal(b1-4)GlcNAc(b1-2)Man(a1-6)[GlcNAc(b1-2)Man(a1-3)]Man(b1-4)GlcNAc(b1-4)GlcNAc", "in_short": "as §1"}, "[7]": {"target": "Neu5Ac(a2-6)Gal(b1-4)GlcNAc(b1-2)Man(a1-6)[Man(a1-3)]Man(b1-4)GlcNAc(b1-4)GlcNAc", "in_short": "as §1"}, "[8]": {"target": "Neu5Ac(a2-6)Gal(b1-4)GlcNAc(b1-2)[Neu5Ac(a2-6)Gal(b1-4)GlcNAc(b1-4)]Man(a1-3)[GlcNAc(b1-4)][Neu5Ac(a2-6)Gal(b1-4)GlcNAc(b1-2)[Neu5Ac(a2-6)Gal(b1-4)GlcNAc(b1-6)]Man(a1-6)]Man(b1-4)GlcNAc(b1-4)GlcNAc", "in_short": "as §1"}, "[9]": {"target": "Neu5Ac(a2-6)Gal(b1-4)GlcNAc(b1-2)[Neu5Ac(a2-6)Gal(b1-4)GlcNAc(b1-4)]Man(a1-3)[GlcNAc(b1-4)][Neu5Ac(a2-6)Gal(b1-4)GlcNAc(b1-4)Man(a1-6)]Man(b1-4)GlcNAc(b1-4)GlcNAc", "in_short": "as §1"}, "[10]": {"target": "Neu5Ac(a2-6)Gal(b1-4)GlcNAc(b1-2)[Neu5Ac(a2-6)Gal(b1-4)GlcNAc(b1-6)]Man(a1-6)[Neu5Ac(a2-6)Gal(b1-4)GlcNAc(b1-2)Man(a1-3)][GlcNAc(b1-4)]Man(b1-4)GlcNAc(b1-4)GlcNAc", "in_short": "as §1"}, "[11]": {"target": "Neu5Ac(a2-6)Gal(b1-4)GlcNAc(b1-3)Gal(b1-3)GlcNAc", "in_short": "as §1"}, "[12]": {"target": "Neu5Ac(a2-6)Gal(b1-4)GlcNAc(b1-3)Gal(b1-4)GlcNAc", "in_short": "as §1"}, "[13]": {"target": "Neu5Ac(a2-6)Gal(b1-4)GlcNAc(b1-3)Gal(b1-4)GlcNAc(b1-2)Man(a1-3)[Neu5Ac(a2-6)Gal(b1-4)GlcNAc(b1-3)Gal(b1-4)GlcNAc(b1-2)Man(a1-6)]GalNAc", "in_short": "as §1"}, "[14]": {"target": "Neu5Ac(a2-6)Gal(b1-4)GlcNAc(b1-3)Gal(b1-4)GlcNAc(b1-3)Gal(b1-4)GlcNAc", "in_short": "as §1"}, "[15]": {"target": "Neu5Ac(a2-6)Gal(b1-4)GlcNAc(b1-3)Gal(b1-4)GlcNAc(b1-3)Gal(b1-4)GlcNAc(b1-2)Man(a1-3)[Neu5Ac(a2-6)Gal(b1-4)GlcNAc(b1-3)Gal(b1-4)GlcNAc(b1-3)Gal(b1-4)GlcNAc(b1-2)Man(a1-6)]GalNAc", "in_short": "as §1"}, "[16]": {"target": "Neu5Ac(a2-6)Gal(b1-4)GlcNAc(b1-3)Gal(b1-4)GlcNAc(b1-3)GalNAc", "in_short": "as §1"}, "[17]": {"target": "Neu5Ac(a2-6)Gal(b1-4)GlcNAc(b1-3)Gal(b1-4)GlcNAc(b1-3)[Neu5Ac(a2-6)Gal(b1-4)GlcNAc(b1-3)Gal(b1-4)GlcNAc(b1-6)]GalNAc", "in_short": "as §1"}, "[18]": {"target": "Neu5Ac(a2-6)Gal(b1-4)GlcNAc(b1-3)Gal(b1-4)GlcNAc(b1-6)[Gal(b1-3)]GalNAc", "in_short": "as §1"}, "[19]": {"target": "Neu5Ac(a2-6)Gal(b1-4)GlcNAc(b1-3)Gal(b1-4)[Fuc(a1-3)]GlcNAc(b1-3)Gal(b1-4)[Fuc(a1-3)]GlcNAc", "in_short": "as §1"}, "[20]": {"target": "Neu5Ac(a2-6)Gal(b1-4)GlcNAc(b1-3)GalNAc", "in_short": "as §1"}, "[21]": {"target": "Neu5Ac(a2-6)Gal(b1-4)GlcNAc(b1-3)[Neu5Ac(a2-6)Gal(b1-4)GlcNAc(b1-6)]GalNAc", "in_short": "as §1"}, "[22]": {"target": "Neu5Ac(a2-6)Gal(b1-4)GlcNAc(b1-6)GalNAc", "in_short": "as §1"}, "[23]": {"target": "Neu5Ac(a2-6)Gal(b1-4)GlcNAc(b1-6)[Gal(b1-3)GlcNAc(b1-3)]Gal(b1-4)Glc", "in_short": "as §1"}, "[24]": {"target": "Neu5Ac(a2-6)Gal(b1-4)GlcNAc(b1-6)[Gal(b1-3)]GalNAc", "in_short": "as §1"}, "[25]": {"target": "Neu5Ac(a2-6)Gal(b1-4)GlcNAc6S", "in_short": "as §1"}, "Neu5Ac(a2-6)GalNAc": {"target": "Neu5Ac(a2-6)GalNAc", "in_short": "as §1"}, "[26]": {"target": "Neu5Ac(a2-6)GalNAc(b1-4)GlcNAc", "in_short": "as §1"}, "[27]": {"target": "Neu5Ac(a2-6)GalNAc(b1-4)GlcNAc6S", "in_short": "as §1"}, "[28]": {"target": "Neu5Ac(a2-6)GlcNAc(b1-4)GlcNAc", "in_short": "as §1"}, "[29]": {"target": "Neu5Ac(a2-6)GlcNAc(b1-4)GlcNAc(b1-4)GlcNAc", "in_short": "as §1"}}, "note": "The list shows a part of the results."}
{"binder": "Arath Fbox LD (Arabidopsis thaliana) (protein) EFSVWLEKASGKRCLMLSAMNLSIIWGDNPQYWQWIPIPESRFEKVAKLRDVCWFEIRGRTNTRVLSPRTRYSAYIVFKGVDKCYGFQNVAIEAAVGVVGQEPSRRLICFSEAIRRGRRNVVKPKQREDGWMEIELGEFFNDGGIMDNDEIEMSALETKQLNRKCGLIIQGIEIRPAKILAAASFLEQKLISEEDLNSAVDHHHHHH", "values": [{"measurement": "glycan array binding signal (z-score)", "setting": "[1]", "result": -0.541}, {"measurement": "glycan array binding signal (z-score)", "setting": "[2]", "result": -0.342}, {"measurement": "glycan array binding signal (z-score)", "setting": "[3]", "result": -0.55}, {"measurement": "glycan array binding signal (z-score)", "setting": "[4]", "result": -0.541}, {"measurement": "glycan array binding signal (z-score)", "setting": "[5]", "result": 0.038}, {"measurement": "glycan array binding signal (z-score)", "setting": "[6]", "result": -0.555}, {"measurement": "glycan array binding signal (z-score)", "setting": "[7]", "result": -0.359}, {"measurement": "glycan array binding signal (z-score)", "setting": "[8]", "result": 0.464}, {"measurement": "glycan array binding signal (z-score)", "setting": "[9]", "result": 0.245}, {"measurement": "glycan array binding signal (z-score)", "setting": "[10]", "result": 0.015}, {"measurement": "glycan array binding signal (z-score)", "setting": "[11]", "result": -0.356}, {"measurement": "glycan array binding signal (z-score)", "setting": "[12]", "result": 0.147}, {"measurement": "glycan array binding signal (z-score)", "setting": "[13]", "result": -0.579}, {"measurement": "glycan array binding signal (z-score)", "setting": "[14]", "result": -0.407}, {"measurement": "glycan array binding signal (z-score)", "setting": "[15]", "result": -0.311}, {"measurement": "glycan array binding signal (z-score)", "setting": "[16]", "result": -0.344}, {"measurement": "glycan array binding signal (z-score)", "setting": "[17]", "result": -0.503}, {"measurement": "glycan array binding signal (z-score)", "setting": "[18]", "result": 0.373}, {"measurement": "glycan array binding signal (z-score)", "setting": "[19]", "result": 0.615}, {"measurement": "glycan array binding signal (z-score)", "setting": "[20]", "result": -0.324}, {"measurement": "glycan array binding signal (z-score)", "setting": "[21]", "result": 0.648}, {"measurement": "glycan array binding signal (z-score)", "setting": "[22]", "result": 0.368}, {"measurement": "glycan array binding signal (z-score)", "setting": "[23]", "result": -0.408}, {"measurement": "glycan array binding signal (z-score)", "setting": "[24]", "result": -0.326}, {"measurement": "glycan array binding signal (z-score)", "setting": "[25]", "result": -0.357}, {"measurement": "glycan array binding signal (z-score)", "setting": "Neu5Ac(a2-6)GalNAc", "result": -0.464}, {"measurement": "glycan array binding signal (z-score)", "setting": "[26]", "result": -0.53}, {"measurement": "glycan array binding signal (z-score)", "setting": "[27]", "result": -0.25}, {"measurement": "glycan array binding signal (z-score)", "setting": "[28]", "result": -0.307}, {"measurement": "glycan array binding signal (z-score)", "setting": "[29]", "result": -0.175}]}
